PubChem BioAssay AID2675 (National Center for Advancing Translational Sciences (NCATS), 2010)
The campaign covered roughly 280,000 compounds. About 100 (0.036%) were called active. The inconclusive results got no clear call from the source; some entries with a clear call stand among them for comparison. Calls come from the whole dose curve; as a rule, active = well fitted inhibition curve with a large enough effect in the signal ratio, with a control signal flat (not every such curve was filed as active); inconclusive = small, poorly fitted or top-dose-only effect, or effect the other way, or a change in a side signal; inactive = no such curve, though single readings can be large or run the other way; the % refers to the signal ratio. Potencies beside an inconclusive call are fits to weak or partial responses and may not hold up. “Side channel” marks fits to a control or component signal instead of the main read-out.

biological target: Muscleblind-like protein 1 (Homo sapiens) (UniProt Q9NR56); test: qHTS Assay for Inhibitors of MBNL1-poly(CUG) RNA binding; conditions: TR-FRET MBNL1-His/biotin-(CUG)12 binding, 665/545 ratio; activity change, negative = inhibition: at 57.5 µM (top of the series)
UniProt Q9NR56, sequence (Q9NR56 whole entry, looked up): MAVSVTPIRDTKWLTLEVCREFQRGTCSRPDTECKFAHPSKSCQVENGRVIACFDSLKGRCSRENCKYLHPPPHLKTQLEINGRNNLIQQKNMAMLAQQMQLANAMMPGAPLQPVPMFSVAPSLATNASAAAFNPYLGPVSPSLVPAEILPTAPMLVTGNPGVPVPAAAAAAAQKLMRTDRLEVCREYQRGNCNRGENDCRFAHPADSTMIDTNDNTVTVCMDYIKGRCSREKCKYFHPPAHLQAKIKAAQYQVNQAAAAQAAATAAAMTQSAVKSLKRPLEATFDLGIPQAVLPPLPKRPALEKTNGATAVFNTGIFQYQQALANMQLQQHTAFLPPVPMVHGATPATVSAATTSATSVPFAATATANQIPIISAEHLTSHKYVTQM
Summary of the method: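 MBNL1-His + Biotin-(CUG)12, cpd titration 92 nM–58 uM; Tb anti-His Ab 0.055 ng/ul, SA-XL665 5 nM (final); 60 min RT; ratiometric 665/545 nm, Ex 340 nm; normalized to buffer and full-complex controls.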
% is set by controls: 0 for no effect and ±100 for the full control effect; potency is the fitted concentration of half-maximal effect; tags give direction and shape of the fitted curve or compound fluorescence and quenching.

SMILES | Potency | activity change, negative = inhibition
Cc1cccc(Nc2c(-c3ccc(O)cc3)nc3ncccn23)c1 | inconclusive: 35.5 µM [quencher, side channel, single point] | 
COc1cc2nc(=S)n(CCCN3CCOCC3)c(N)c2cc1OC |  | inactive: 0.438%
COc1ccc(/C=C/C(=O)NCC(=O)N=Nc2c(O)[nH]c3ccc([N+](=O)[O-])cc23)cc1 | inconclusive: 10 µM [quencher, partial curve] | 
COc1ccc(/C=N/NC(=O)c2cccnc2)cc1CN1CCCc2ccccc21 |  | inactive: 15.9%
Cc1cc(C)nc(N(C#N)Cc2ccc([N+](=O)[O-])cc2)n1 | inconclusive: 28.2 µM [quencher, partial curve] | 
CCCCn1c(S(=O)(=O)O)nc2ccccc21 | inconclusive: 1.78 µM [quencher, side channel, partial curve] | 
O=C(CNC(=O)c1ccco1)N/N=C/c1ccccc1[N+](=O)[O-] | inconclusive: 14.1 µM [quencher, side channel, partial curve] | 
Cc1nnc(NC(=O)CSc2nnc(Cc3cccn3C)n2-c2ccccc2)s1 |  | inactive: 4.84%
COc1ccc(Cn2c(-c3ccc(OC)cc3)nc3ccccc32)cc1 |  | inactive: -6.96%
NC(=O)c1c(NC(=O)CCCn2cnc([N+](=O)[O-])n2)sc2c1CCCC2 | inconclusive: 28.2 µM [quencher, side channel, partial curve] | 
COc1cc([N+](=O)[O-])ccc1NC(=O)NNC(=O)c1sccc1C | inconclusive: 28.2 µM [quencher, side channel, partial curve] | 
CN(Cc1ccc(Cl)s1)C(=O)CCl |  | inactive: -5.54%
COc1ccc(CSc2nc(C)[nH]c2[N+](=O)[O-])cc1[N+](=O)[O-] | inconclusive: 20 µM [quencher, side channel, partial curve] | 
COc1ccccc1NC(=O)CSc1nnc(-c2ccc(C)cc2)o1 |  | inactive: -1.59%
CC1CC(C)(C)Nc2ccc(N=O)cc21 (centres undefined) | inconclusive: 12.6 µM [quencher, side channel, partial curve] | 
Cc1occc1C(=O)N/N=C/C=C/c1ccccc1[N+](=O)[O-] | inconclusive: 15.8 µM [quencher, side channel, partial curve] | 
COc1ccc(Cl)cc1C(=O)Nc1nc2ccccc2[nH]1 | inconclusive: 39.8 µM [fluorescent, single point] | 
O=C(NCC1CCCO1)c1ccc([N+](=O)[O-])s1 (centres undefined) | inconclusive: 11.2 µM [quencher, partial curve] | 
COc1ccc(CSCC(=O)N/N=C/c2ccc(OCC(=O)N3CCCCC3)cc2)cc1 |  | inactive: 2.16%
COc1ccc(C)c2sc(NC(=O)CCS(=O)(=O)c3ccccc3)nc12 |  | inactive: -4.44%
Cc1cc(C(F)F)n2ncc(C(=O)N3CCCCC3)c2n1 | inconclusive: 7.08 µM [quencher, side channel, single point] | 
Cc1nc2ccccc2n1/N=C/c1ccc([N+](=O)[O-])s1 | inconclusive: 3.16 µM [quencher, side channel, full curve] | 

SMILES | Potency | activity change, negative = inhibition
O=C(CCc1ccc(S(=O)(=O)NC2CCCCC2)cc1)NCc1ccccn1 | inconclusive: 31.6 µM [quencher, side channel, partial curve] | 
CN1CCN(Cc2nc3ccccc3c(=O)n2Cc2nc(-c3cccc([N+](=O)[O-])c3)cs2)CC1 | inconclusive: 8.91 µM [quencher, side channel, partial curve] | 
O=C(/C(=C(/[O-])c1ccccc1)[n+]1ccccc1)c1ccc([N+](=O)[O-])cc1 | inconclusive: 20 µM [quencher, side channel, partial curve] | 
Cc1cc(C)n(-c2nc(NCC3CCCO3)c3c4c(sc3n2)COC(C)(C)C4)n1 (centres undefined) |  | inactive: 5.77%
CC/C(=N/Nc1cccc(Cl)c1)c1cnnc(SC)n1 |  | inactive: 2.75%
CCCOc1ccc(-c2cn3ccccc3n2)cc1[N+](=O)[O-] | inconclusive: 3.55 µM [quencher, side channel, full curve] | 
COc1ccc(NC(=S)Nc2ncccc2C)c(OC)c1 |  | inactive: -3.36%
CC(C)n1c(O)c(N=NC(=O)Cc2csc(N3CCOCC3)n2)c2ccccc21 | inconclusive: 25.1 µM [quencher, side channel, partial curve] | 
Cc1cc(C(=O)CSc2nc3ccccc3c(=O)n2C)c(C)n1Cc1ccc2c(c1)OCO2 | inconclusive: 6.31 µM [fluorescent, side channel, single point] | 
CCOC(=O)c1nc(Nc2ccc(N3CCOCC3)cc2)c2ccccc2n1 | inconclusive: 15.8 µM [quencher, side channel, partial curve] | 
COc1ccc(/C=C/C(=O)c2ccc[nH]2)cc1OC | inconclusive: 28.2 µM [quencher, side channel, single point] | 
Cc1ccc(NC(=S)C2=C(O)c3ccccc3N(C)S2(=O)=O)cc1 |  | inactive: -2.69%
C/C(=N\NC(=O)c1ccc(C(=O)N/N=C(\C)c2ccco2)o1)c1ccco1 | inconclusive: 15.8 µM [quencher, partial curve] | 
COc1cccc(C2C(C(=O)c3cc4ccccc4o3)=C(O)C(=O)N2CCN2CCOCC2)c1 (centres undefined) | inconclusive: 22.4 µM [quencher, side channel, partial curve] | 
CC1CN(c2ccc([N+](=O)[O-])nc2)CC(C)O1 (centres undefined) | inconclusive: 14.1 µM [quencher, side channel, partial curve] | 
CC(C)c1ccc(Nc2nnc(SCC(=O)Nc3ncc(S(=O)(=O)c4ccc([N+](=O)[O-])cc4)s3)s2)cc1 | inconclusive: 25.1 µM [quencher, single point] | 
Cc1ccc(CCNC(=O)C2CCCN2S(=O)(=O)c2ccc3c(c2)CCC(=O)N3)cc1 (centres undefined) | inconclusive: 3.55 µM [quencher, side channel, full curve] | 
CCc1nonc1NC(=O)c1oc2c(C)c(C)ccc2c1C |  | inactive: 10.5%
Cc1nn2c3ccccc3n(CC(=O)c3cccs3)c2nc1=O |  | inactive: -4.22%
Cc1nc(NCc2ccccc2)c2cc[nH]c2n1 | inconclusive: 3.55 µM [fluorescent, side channel, partial curve] | 
CCn1c(COc2ccccc2)nnc1SCC(=O)NC1CCCCC1 |  | inactive: 10.9%
Cc1c(Br)c(=O)oc2c(Br)c(O)c(O)cc12 | inconclusive: 17.8 µM [activator, single point] | 

SMILES | Potency | activity change, negative = inhibition
COc1ccccc1CNC(=O)CCS(=O)(=O)c1cccc2nonc12 | inconclusive: 14.1 µM [quencher, side channel, partial curve] | 
N#C/C(=C/c1ccc(N2CCCCCC2)o1)c1cccc(F)c1 |  | inactive: 4.34%
NC(=O)[C@@H]1CCNc2c(I)cc([N+](=O)[O-])cc2C(=O)N[C@@H](CO)C(=O)N[C@@H](Cc2ccc(O)cc2)C(=O)N1 | inconclusive: 12.6 µM [quencher, side channel, partial curve] | 
Cc1nn(-c2ccccc2)c(C)c1C(=O)NCCc1ccccc1 |  | inactive: -1.11%
Cc1ccc(Cl)cc1NC(=O)CCCN1C(=O)c2cccnc2C1=O | inconclusive: 28.2 µM [quencher, side channel, partial curve] | 
CCCCN1C(=O)/C(=C/C=C2/C=Cc3ccccc3N2CC)SC1=S | inconclusive: 10 µM [inhibitor, single point] | 
COc1ccc(C[C@H]2CN3C(=NC[C@@H]3Cc3ccccc3)N2CCNC(=O)c2ccc(C)c(Br)c2)cc1 |  | inactive: -18.6%
N#CCC(=O)N/N=C/c1ccc(N2N=C(c3ccccc3)CC2c2ccccc2)cc1 (centres undefined) |  | inactive: 9.63%
O=C(Nc1ccc(-c2nc3cccnc3s2)cc1)c1cccnc1Cl | inconclusive: 3.98 µM [quencher, side channel, full curve, poor fit] | 
CCOC(=O)C1=C(C)NC(SCC(=O)O)=NC1c1ccccc1 (centres undefined) | inconclusive: 15.8 µM [quencher, side channel, partial curve] | 
CCOC(=O)N1CCC(NC(=O)CCS(=O)(=O)c2ccc3c(c2)CCN3C(=O)CC)CC1 |  | inactive: 1.83%
CCOC(=O)N1C(=O)[C@](c2ccc(Cl)cc2)(C(C)C)N1C(=O)OCC |  | inactive: -0.578%
CCN1CCN(C2=NC(=O)/C(=C/c3ccc(C)o3)S2)CC1 | inconclusive: 17.8 µM [quencher, side channel, single point] | 
CN(C)c1ccc(/C=C(/NC(=O)c2ccccc2)C(=O)NCCCn2ccnc2)cc1 | inconclusive: 17.8 µM [quencher, side channel, partial curve] | 
O=S(=O)(c1cc(Br)ccc1Br)N1CCCCCC1 |  | inactive: -8.99%
O=C(Cn1nc(-c2ccccc2)ccc1=O)N1CCCCC1 | inconclusive: 28.2 µM [quencher, side channel, partial curve] | 
COCCCNC(=O)/C(C#N)=C/c1c(N2CCCCCC2)nc2ccccn2c1=O | inconclusive: 15.8 µM [quencher, side channel, partial curve] | 
COc1ccccc1CNC(=O)c1cccc(C)c1[N+](=O)[O-] | inconclusive: 631 µM [quencher, side channel, partial curve, poor fit] | 
Cc1ccc2nc(C)cc(SCC(=O)N/N=C/c3ccco3)c2c1 | inconclusive: 14.1 µM [quencher, side channel, partial curve] | 
CCOC(=O)c1c(NC(=O)c2ccc(S(=O)(=O)N(C)CC3CCCO3)cc2)sc2c1CCN(C)C2 (centres undefined) | inconclusive: 28.2 µM [quencher, side channel, partial curve] | 
